44 compounds from PMC4336329 (PLoS ONE, 2015) can be followed below.

About 2,200 (0.71%) of roughly 310,000 compounds showed an effect of 50% or more. Effects have a minus sign here. The list shows a part of the results.

Chain of human ether-à-go-go-related gene (hERG) potassium channel (Q12809 whole entry, looked up): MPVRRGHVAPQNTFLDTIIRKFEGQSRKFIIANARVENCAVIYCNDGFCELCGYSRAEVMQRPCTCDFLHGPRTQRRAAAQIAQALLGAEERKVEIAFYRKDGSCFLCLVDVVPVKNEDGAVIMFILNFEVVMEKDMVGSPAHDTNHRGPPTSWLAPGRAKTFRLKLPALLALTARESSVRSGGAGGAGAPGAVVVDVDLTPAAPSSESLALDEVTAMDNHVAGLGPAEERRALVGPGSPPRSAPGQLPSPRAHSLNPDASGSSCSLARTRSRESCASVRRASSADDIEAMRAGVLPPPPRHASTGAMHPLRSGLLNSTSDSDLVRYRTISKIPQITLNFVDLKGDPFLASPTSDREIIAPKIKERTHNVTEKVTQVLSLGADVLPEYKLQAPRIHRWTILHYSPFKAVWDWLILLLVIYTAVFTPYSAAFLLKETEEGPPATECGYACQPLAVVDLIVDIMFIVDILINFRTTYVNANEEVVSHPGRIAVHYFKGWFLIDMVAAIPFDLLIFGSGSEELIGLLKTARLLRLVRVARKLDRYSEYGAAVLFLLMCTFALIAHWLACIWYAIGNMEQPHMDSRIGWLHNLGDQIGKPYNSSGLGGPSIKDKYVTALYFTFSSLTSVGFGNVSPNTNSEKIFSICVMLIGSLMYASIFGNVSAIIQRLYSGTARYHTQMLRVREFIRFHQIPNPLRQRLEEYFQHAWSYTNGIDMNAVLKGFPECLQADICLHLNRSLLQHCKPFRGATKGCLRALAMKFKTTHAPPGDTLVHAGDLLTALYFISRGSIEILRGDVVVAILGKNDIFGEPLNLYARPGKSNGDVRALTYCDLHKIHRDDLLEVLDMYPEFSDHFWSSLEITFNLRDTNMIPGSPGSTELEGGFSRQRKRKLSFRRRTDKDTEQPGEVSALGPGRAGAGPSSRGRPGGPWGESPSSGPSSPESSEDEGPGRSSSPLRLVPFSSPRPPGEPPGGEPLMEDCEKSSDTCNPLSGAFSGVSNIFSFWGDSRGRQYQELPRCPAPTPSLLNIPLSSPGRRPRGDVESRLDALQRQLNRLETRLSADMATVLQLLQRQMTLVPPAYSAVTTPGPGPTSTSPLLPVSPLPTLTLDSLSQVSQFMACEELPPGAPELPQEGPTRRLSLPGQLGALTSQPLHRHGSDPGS

This assay has as its target human ether-à-go-go-related gene (hERG) potassium channel (human, UniProt Q12809). Description: primary screen, population patch clamp on CHO cells stably expressing hERG.
As to `Cc1ccc(Cn2ncc3c(N4CCN(CCc5ccccc5)CC4)ncnc32)cc1`, the “hERG current change (%, negative = inhibition) at 1uM” value was determined as 5.95%.
Regarding `CC(=O)Oc1cccc(Nc2ncnc3ccccc23)c1`, the “hERG current change (%, negative = inhibition) at 1uM” value is given as 10.7%.
Turning to `CN1CCN(c2cc(N3CCc4ccccc4C3)c(F)cc2[N+](=O)[O-])CC1`, the “hERG current change (%, negative = inhibition) at 1uM” value is on record as 3.61%.
The result for `N#Cc1c(NC(=O)c2cc([N+](=O)[O-])ccc2N2CCOCC2)sc2c1CCCC2` reads 7.82%; that for `CCNc1nc(NC(C)C)nc(OCCNS(=O)(=O)c2cc(C)ccc2C)n1`, -9.05%.
As to `CCOC(=O)N1CCC(N2Cc3cccc(C(=O)N4CCN(C5CCCCC5)CC4)c3C2=O)CC1`, the “hERG current change (%, negative = inhibition) at 1uM” value is -32.6%.
Then `Cc1cc2nc(CN(C)Cc3c(C(=O)N(C)C)nc4ccc(Cl)cn34)[nH]c2cc1C`, with -7.56%.
Take `COc1cc(NC(=O)CSc2nncn2C)c(C)cc1[N+](=O)[O-]`: the “hERG current change (%, negative = inhibition) at 1uM” value is 19.9%.
In the case of `Cc1cc(OCC(O)CN2CCN(c3ccccn3)CC2)cc(C)c1Cl.Cl` (centres unmarked), the “hERG current change (%, negative = inhibition) at 1uM” value amounted to 5.25%.
Then `O=S(=O)(CCSc1ccccn1)c1nc2ccccc2s1`, with 13.4%.
As to `CCN(CC)C(=O)C[n+]1cccc(/C=N/O)c1`, the “hERG current change (%, negative = inhibition) at 1uM” value is given as 12.3%.
The result for `O=C1Nc2ccccc2C(=O)C1(Cl)Cc1ccccc1` (centres unmarked) reads 7.8%; that for `COc1ccc(NC(=O)C2CC(=O)OC2(C)C)cc1` (centres unmarked), 15.2%.
Then `S=C(Nc1cccnc1)N1CCCCC1`, with 12.1%; and `O=C(NC1CCCCC1)C1(S(=O)(=O)c2ccc(Cl)cc2)CC1`, with 5.66%.
The result for `CCCNC(=O)COC(=O)c1cc2c(=O)n3ccccc3nc2s1` reads 14.1%; that for `COc1cccc(C(c2sc3ncnn3c2O)N2CC(C)OC(C)C2)c1` (centres unmarked), 4.29%; that for `COCCn1c(SCC(=O)NC2CCCCC2C)nc2ccccc2c1=O` (centres unmarked), 9.71%.
Turning to `COc1ccc(N2CCN(CCNC(=O)Nc3ccc(C)cc3Cl)CC2)cc1`, the “hERG current change (%, negative = inhibition) at 1uM” value is reported as 5.1%.
With `COc1ccc2[nH]c3c(=O)n(CCCC(=O)NC4CCC(C)CC4)c(=S)[nH]c3c2c1` (centres unmarked), the “hERG current change (%, negative = inhibition) at 1uM” value turned out to be 6.72%.
The result for `Brc1ccc(-c2c[n+]3c(n2-c2ccccc2)SCC3)cc1.[Br-]` reads -3.12%; that for `O=S(=O)(Nc1cnc2ccccc2c1)N1CCCCCC1`, -4.76%.
As to `CC(C)OCCCNc1ccc(N2C(=O)CCCC2=O)cc1[N+](=O)[O-]`, the “hERG current change (%, negative = inhibition) at 1uM” value is -0.197%.
As for `CCSc1nnc(CNc2ccc(F)cc2)n1CC1CCCO1` (centres unmarked), the “hERG current change (%, negative = inhibition) at 1uM” value worked out at 5.32%.
Then `COc1cc(CC(=O)OCC(=O)NCc2ccc(C)cc2)cc(OC)c1OC`, with 7.81%; and `Cc1nc(S(=O)(=O)Nc2ccc3c(c2)OCCO3)cn1C`, with 15.4%; and `Cc1nc2c(C(=O)NCc3ccc(F)cc3)c[nH]n2c(=O)c1Cl`, with 17.9%.
For `COc1ccccc1CNC(=O)CC(C)C`, the “hERG current change (%, negative = inhibition) at 1uM” value is on record as 10.7%.
Regarding `Cc1noc(C)c1COC(=O)c1cc(C)n(-c2ccccc2)c1C`, the “hERG current change (%, negative = inhibition) at 1uM” value amounted to 7.81%.
On to `CCOc1cc(C)cc2oc(=O)c3c(c12)CCCC3`, for which the “hERG current change (%, negative = inhibition) at 1uM” value worked out at 2.06%.
Take `C[C@]12C(=O)N(c3ccc(F)cc3)C(=O)N1[C@@H]1c3ccccc3OC[C@@H]1[C@H]2c1ccccc1`: the “hERG current change (%, negative = inhibition) at 1uM” value came to 5.13%.
The result for `CCOC(=O)Cn1cnc2c(nnn2-c2ccc(C)cc2)c1=O` reads 11.4%.
Turning to `Cc1ccc(Cn2ccc(NC(=O)c3cc(-c4cccc(Cl)c4)on3)n2)cc1`, the “hERG current change (%, negative = inhibition) at 1uM” value was found to be 0.799%.
Turning to `CCC(C)SCC(=O)Nc1ccc(S(=O)(=O)N2CCOCC2)cc1OC` (centres unmarked), the “hERG current change (%, negative = inhibition) at 1uM” value is 4.5%.
The result for `Cl.OCCN(Cc1ccccc1)CC(O)COc1ccc(-c2ccccc2)cc1` (centres unmarked) reads 4.44%.
The result for `C=CCOc1cccc(C2C(C(=O)c3ccc(C)o3)=C(O)C(=O)N2CCN(C)C)c1` (centres unmarked) reads 6.17%; that for `CCOC(=O)CSc1nc(=O)n2ccccc2n1`, 13.7%; that for `CCOC(=O)c1cc2c(n(-c3ccc(C)cc3)c1=O)CCCC2=O`, 6.86%.
Turning to `COc1ccc(Oc2ccc(C(F)(F)F)cc2NC(=O)c2ccc(C)cc2)cc1`, the “hERG current change (%, negative = inhibition) at 1uM” value was found to be 10.6%.
As for `Cc1ccccc1CC(=O)Nc1ccc2c(C)cc(=O)oc2c1`, the “hERG current change (%, negative = inhibition) at 1uM” value amounted to 13.1%.
The result for `Clc1ccc(C2=CC(c3ccco3)n3ncnc3N2)cc1` (centres unmarked) reads 3.08%; that for `COc1ccc(CCNc2nc(C)nc3c2nnn3Cc2ccccc2)cc1`, 11%; that for `OCCc1c[nH]c2ccc(OCc3ccccc3)cc12`, 11.3%.
For `CCOC(=O)c1cccc(NC(=O)CCOc2ccccc2)c1`, the “hERG current change (%, negative = inhibition) at 1uM” value was determined as 22.6%.
